In patent US10966978B2, “Dose and regimen for HDM2-p53 interaction inhibitors” (Novartis AG, priority 2016, dated 2021):

System: TP53 wild-type (WT) advanced solid tumors
Format: in vivo, human
[1] = 21 sarcoma patients, regimen 1B, September 2017

COc1ncc(-c2nc3c(n2C(C)C)[C@H](c2ccc(Cl)cc2)N(c2cc(Cl)cn(C)c2=O)C3=O)c(OC)n1 [HDM201, (S)-5-(5-Chloro-1-methyl-2-oxo-1,2-dihydro-pyridin-3-yl)-6-(4-chloro-phenyl)-2-(2,4-dimethoxy-pyrimidin-5-yl)-1-isopropyl-5,6-dihydro-1H-pyrrolo[3,4-d]imidazol-4-one]
partial response (PR), number of patients [1]: 5 | progressed disease (PD), number of patients [1]: 5 | stable disease (SD), number of patients [1]: 11 | unconfirmed PR, number of patients (regimen 1B 120 mg, 9 patients treated, liposarcoma): 1 | PR, number of patients (regimen 1B 120 mg, 9 patients treated, soft tissue sarcoma): 1
